Source: PubChem BioAssay AID588342 (National Center for Advancing Translational Sciences (NCATS), 2011)
Screen size: about 360,000 compounds; about 25,000 (6.9%) were called active. The shares of active, inactive and inconclusive entries below differ from those in the screen. The call rests on the fitted dose curve; in most records, active means well fitted inhibition curve with a large enough effect; inconclusive means small, poorly fitted or top-dose-only effect; inactive means flat fitted curve, though single readings scatter. Potencies of inconclusive entries are doubtful fits and often do not repeat.

What follows are compounds tested against Luciferin 4-monooxygenase (Photinus pyralis) (UniProt P08659) (assay: qHTS profiling assay for firefly luciferase inhibitor/activator using purifed enzyme and Km concentrations of substrates (counterscreen for miR-21 project)). Conditions: purified FLuc, luminescence inhibition; series mostly up to 57.5 µM.
How it was run: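 Purified P. pyralis luciferase (10nM final) with 10uM D-luciferin and 10uM ATP (Km levels) in 50mM Tris acetate pH 7.5, 10mM Mg acetate, 0.01% Tween-20, 0.05% BSA; qHTS 6-point titration, ~60 µM downward; luminescence read.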
Further: nearly all actives have a fitted effect of over 55% in size.
Potency means the concentration at half of the fitted maximal effect; tags describe the fitted curve by direction and shape.

Chain of UniProt P08659 (P08659 whole entry, looked up): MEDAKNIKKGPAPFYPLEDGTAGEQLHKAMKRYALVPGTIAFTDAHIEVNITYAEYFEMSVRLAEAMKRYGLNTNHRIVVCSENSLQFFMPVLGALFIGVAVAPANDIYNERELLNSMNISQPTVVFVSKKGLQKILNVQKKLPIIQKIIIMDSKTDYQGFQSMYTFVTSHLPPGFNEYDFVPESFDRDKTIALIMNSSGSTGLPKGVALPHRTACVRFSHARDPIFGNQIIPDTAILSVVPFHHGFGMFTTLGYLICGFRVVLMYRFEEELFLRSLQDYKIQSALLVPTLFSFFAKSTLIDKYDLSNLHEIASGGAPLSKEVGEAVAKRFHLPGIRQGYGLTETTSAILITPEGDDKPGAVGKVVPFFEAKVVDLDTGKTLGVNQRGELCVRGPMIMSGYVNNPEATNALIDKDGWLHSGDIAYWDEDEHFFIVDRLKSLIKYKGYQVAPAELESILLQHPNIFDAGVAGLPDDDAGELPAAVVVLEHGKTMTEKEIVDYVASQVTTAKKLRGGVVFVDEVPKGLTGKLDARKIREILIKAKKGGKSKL

SMILES	Potency
O=C(Cn1cnc2ccccc2c1=O)N1CCOCC1	inactive
O=C(N/N=C/c1c[nH]c2ccc(Br)cc12)c1ccccn1	inconclusive: 30.1 µM [inhibitor, partial curve, poor fit]
NS(=O)(=O)c1ccc2nc(NC(=O)c3ccncc3)sc2c1	active: 6.75 µM
COc1ccc(C(=O)Nc2ccc(C(=O)N3CCCCC3)cc2)cc1OC	active: 23.9 µM
O=[N+]([O-])c1ccccc1S(=O)(=O)N1CCCc2ccccc21	inactive
Cc1nc2nc(-c3ccc(Cl)cc3Cl)nn2c(C)c1CCC(=O)Nc1ccc(F)cc1	inconclusive: 26.9 µM [inhibitor, partial curve, poor fit]
COc1cccc(N2CC(NC(=O)c3ccc4c(c3)OCO4)CC2=O)c1 (configuration not stated)	inactive
CC(NC(=O)c1ccc2c(=O)n3c(nc2c1)CCCCC3)c1ccccc1 (configuration not stated)	inactive
COc1ccc(C(CC(=O)Nc2cccc(C)c2C)N2Cc3ccccc3C2=O)cc1 (configuration not stated)	inactive
O=C(N/N=C/c1ccccc1OC(F)F)NC1CCCCC1	inconclusive: 37.9 µM [inhibitor, partial curve, poor fit]
Cc1cccc(-c2cc(NC(=O)C(C)(C)C)n(-c3ccccc3)n2)c1	active: 21.3 µM
COc1cc(C2c3c(oc4ccccc4c3=O)C(=O)N2c2nncs2)cc(OC)c1OC (configuration not stated)	inactive
COc1ccc(/C=N/Nc2ncnc(Cl)c2N)cc1OC	active: 21.3 µM
Cc1[nH]c2ccccc2c1/C=C(\C#N)C(=O)NCC1CCCO1 (configuration not stated)	inconclusive: 37.9 µM [inhibitor, single point]
Cc1ccc(NC(=O)OCc2cncs2)cc1	inconclusive: 21.3 µM [inhibitor, partial curve]
Cc1ccc(C(=O)NNC(=O)c2n[nH]c(=O)c3ccccc23)cc1C	inconclusive: 19 µM [inhibitor, partial curve]
COc1ccccc1N(C)S(=O)(=O)c1ccc(C(=O)N2CCCc3ccccc32)cc1	inactive
CC1CCCC(C)N1C(=O)COC(=O)c1nn(C)c(=O)c2ccccc12 (configuration not stated)	inconclusive: 23.9 µM [inhibitor, partial curve]
COc1ncnc2sc(-c3ccccc3)cc12	active: 12 µM
COC(=O)NNC(=O)c1ccc(C(C)(C)C)cc1	inconclusive: 21.3 µM [inhibitor, partial curve, poor fit]
CCn1ncc(Br)c1C(=O)Nc1ccc(C(C)C)cc1	inconclusive: 21.3 µM [inhibitor, single point]
O=C(Nc1nnc(-c2ccccc2Cl)o1)c1cccnc1	active: 19 µM
O=C(NCCC1=CCCCC1)c1cnsn1	inconclusive: 16.9 µM [inhibitor, partial curve]
O=C(Nc1ccc(N2CCOCC2)c(S(=O)(=O)Nc2ccc(Cl)cc2)c1)c1cnccn1	inconclusive: 16.9 µM [inhibitor, partial curve, poor fit]

SMILES	Potency
CCn1c(=O)c2cc(C(=O)Nc3ccc(OC)cc3OC)sc2c2ccccc21	inactive
CC(=O)Nc1ccc(C2Nc3c(C)cc(C)cc3-c3cc(C)nn32)cc1 (configuration not stated)	inactive
CC(C)(C)c1cc(-n2ccnc2)n2ncc(-c3ccc(Cl)cc3)c2n1	inconclusive: 26.9 µM [inhibitor, partial curve, poor fit]
O=C(O)C[C@@H]1C(=O)O[C@@H]2C(COC(=O)c3cc(O)c(O)c(O)c3)O[C@@H](OC(=O)c3cc(O)c(O)c(O)c3)[C@@H](OC(=O)c3cc(O)c(O)c4c3[C@H]1[C@H](O)C(=O)O4)[C@H]2OC(=O)c1cc(O)c(O)c(O)c1 (some centres not stated)	inconclusive: 26.9 µM [inhibitor, single point]
CCn1nc(C)c(/C=N/NC(=O)Cc2ccc(Cl)cc2)c1C	active: 15.1 µM
Cc1ccc(OCC(=O)Nc2nnc(C3CCCO3)s2)c(Br)c1 (configuration not stated)	inconclusive: 16.9 µM [inhibitor, partial curve]
CCCc1cc(=O)n2[nH]c(NCc3ccccc3OC)nc2n1	inconclusive: 21.3 µM [inhibitor, partial curve]
N#Cc1ccc(OCc2ccc(C(=O)O)o2)cc1	inconclusive: 37.9 µM [inhibitor, partial curve, poor fit]
O=C1CC(c2ccccc2Cl)=NN(c2ncnc3ccccc23)C1=O	inconclusive: 10.7 µM [inhibitor, partial curve, poor fit]
CCN(CC)c1ccc(/C=C/c2cc(-c3ccccc3)c3ccccc3n2)cc1	inconclusive: 42.6 µM [inhibitor, partial curve, poor fit]
Cc1nnc(SCC(=O)Nc2sc3c(c2C(N)=O)CCCC3)[nH]c1=O	inconclusive: 37.9 µM [inhibitor, single point]
COc1ccc(C(CNC(=O)COc2cccc(C(F)(F)F)c2)N2CCCC2)cc1 (configuration not stated)	inactive
COc1ccc(N2CCN(C(=O)COC(=O)CNC(=O)c3ccc(C)cc3)CC2)cc1	inconclusive: 42.6 µM [inhibitor, partial curve, poor fit]
O=C(Nc1cccc(C(F)(F)F)c1)c1cc[n+]([O-])cc1	inactive
CCC(=O)Nc1cc(-c2nc3ncccc3o2)ccc1Cl	inconclusive: 37.9 µM [inhibitor, partial curve, poor fit]
CCOc1ccc(NC(=O)Cn2nnc(C(=O)Nc3ccc(OCC)cc3)c2N)cc1	inconclusive: 1.51 µM [inhibitor, full curve]
CN(C)c1ccc(/C=N/NC(=O)c2sccc2-n2cccc2)cc1	inconclusive: 21.3 µM [inhibitor, partial curve]
COCCCn1c(SCc2ccccc2)nc2cc(OC)c(OC)cc2c1=N	inactive
COc1ccc(-c2cn3ccccc3n2)cc1OC	active: 3.38 µM
O=C(NCc1ccccc1Cl)c1ccc2c(O)c(S(=O)(=O)c3ccccc3)c(=O)[nH]c2c1	inconclusive: 12 µM [inhibitor, partial curve]
Cc1ccc(CNC(=O)CN2C(=O)C3CCCCN3c3ccc(C(=O)N4CCCC4)cc32)cc1 (configuration not stated)	inactive
CC(=O)Nc1ccc(NC(=O)C(C)OC(=O)CCc2nc3ccccc3s2)cc1 (configuration not stated)	inactive
Cc1cc(-c2sccc2C)nc(-n2cccc2)n1	inconclusive: 15.1 µM [inhibitor, partial curve, poor fit]
CSc1ccccc1OCc1cc(C(=O)NC2CCc3ccccc32)no1 (configuration not stated)	inactive

SMILES	Potency
COc1ccccc1Nc1ccc(C(=O)NC2CCCCC2)cn1	active: 13.5 µM
COc1cccc2cc3c(=O)oc4ccccc4c3nc12	inconclusive: 8.49 µM [inhibitor, partial curve]
CCC1CN(C(=O)Nc2cc(C)cc(C)c2)c2ccccc2O1 (configuration not stated)	inactive
CCOC(=O)c1cnc(SCCN2CCOCC2)nc1N	inactive
Cn1c(=O)c([N+](=O)[O-])c(NCc2ccc3c(c2)OCO3)c2ccccc21	inconclusive: 30.1 µM [inhibitor, partial curve, poor fit]
COc1cc(NC(=O)c2ccccc2NS(=O)(=O)c2ccc(Cl)s2)cc(OC)c1	inconclusive: 33.8 µM [inhibitor, partial curve, poor fit]
O=C(Nc1ccccc1C(=O)NCc1ccco1)Nc1cccc2ccccc12	inactive
COc1cccc(NC(=O)COc2coc(CN3CCc4ccccc4C3)cc2=O)c1	inactive
Cc1c(C)n(Cc2ccccc2)c2ccc(C(=O)NCc3ccco3)cc12	inconclusive: 30.1 µM [inhibitor, partial curve, poor fit]
C=CCOc1ccc(/C=C2\SC(=S)N(C(C(=O)O)c3ccccc3)C2=O)cc1 (configuration not stated)	active: 21.3 µM
O=C(Cc1ccc(S(=O)(=O)N2CCOCC2)s1)Oc1ccc(F)cc1	inactive
O=C(NNC(=O)c1ccc(Br)o1)c1csc(N2CCOCC2)n1	inactive
COc1ccc(NC(=O)c2oc3ccccc3c2NC(=O)COc2ccccc2OC)c(OC)c1	inconclusive: 13.5 µM [inhibitor, partial curve]
O=C(O)c1cc(-c2cccc([N+](=O)[O-])c2)n[nH]1	inconclusive: 26.9 µM [inhibitor, partial curve, poor fit]
Fc1ccc(-n2ncc3c(SCc4cccnc4)ncnc32)cc1	active: 6.75 µM
CCOC(=O)/C(=N/Nc1ccc(Cl)cc1)S(=O)(=O)c1ccc(Cl)cc1	inconclusive: 26.9 µM [inhibitor, partial curve, poor fit]
O=C(C1CC1)N1CCN(c2nc3ccc(F)cc3s2)CC1	inconclusive: 26.9 µM [inhibitor, partial curve]
O=C(COC(=O)Cc1c(F)cccc1Cl)NC(=O)c1ccccc1	inconclusive: 8.49 µM [inhibitor, partial curve, poor fit]
CCCC(=O)NC(c1ccc(OC)cc1)c1ccc2cccnc2c1O (configuration not stated)	inactive
CCC(Oc1ccccc1)C(=O)Nc1ncc([N+](=O)[O-])s1 (configuration not stated)	inconclusive: 33.8 µM [inhibitor, single point]
Cc1c2ccccc2nc2c(F)c(NC(C)C)c(F)c(F)c12	active: 3.01 µM
COc1ccc(C2CC(=O)Nc3c2c(C)nn3-c2nncc(-c3ccc(C)cc3)n2)c(OC)c1OC (configuration not stated)	inconclusive: 16.9 µM [inhibitor, partial curve, poor fit]
Cc1cccc(CCNC(=O)c2sc3nc4n(c(=O)c3c2C)CCCC4)c1	active: 13.5 µM
CC(OC(=O)c1snc(C(=O)NC2CCCCC2)c1N)C(=O)NC(C)(C)C (configuration not stated)	inconclusive: 7.57 µM [inhibitor, single point]
